# In PubChem BioAssay (NCI):
#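 Where inhibition never reached the appropriate level, the endpoint shown equals the highest concentration tested. Otherwise, values were interpolated linearly from a five-concentration, 48-hour dose response in 96-well plates. GI50 = concentration required for 50% inhibition of growth. Definition used: TGI = concentration required for complete inhibition of growth.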 Peptide text beside a SMILES is read from it. * marks the point of attachment. Boc = CC(C)(C)OC(=O)*
# Tested on: NCI-H322M lung
# Assay: NCI anticancer screen, dose series, 48 h
SMILES,GI50,TGI
O=C(Cn1c(C(=O)c2ccc(Cl)cc2)nc(-c2ccc(Cl)cc2)c1-c1ccc(Cl)cc1)c1ccccc1,> 100 µM,> 100 µM
c1ccc2c(c1)SC(=C1Sc3ccccc3S1)S2,,> 100 µM
O=C(COc1ccccc1Cl)N1N=C(c2ccccc2)CC1(O)c1ccccc1 (stereo unspecified),,39.9 µM
Cc1ccccc1NC(=O)Cc1csc(N/N=C2\NC(=O)/C(=C/c3cccc([N+](=O)[O-])c3)S2)n1,,> 100 µM
COc1cc2c3c(n(CCCN4CCNCC4)c(=O)c2cc1OC)-c1cc2c(cc1C3=O)OCO2,5.47 µM,12.2 µM
ClCCCSSCCCCl,,> 100 µM
O=C(c1ccccc1)C(Cl)C(Cl)c1ccccc1 (stereo unspecified),13.4 µM,27.5 µM
COc1cc(C2c3cc4c(cc3OC(NNC(N)=O)C2C)OCO4)cc(OC)c1OC (stereo unspecified),,61.5 µM
N#CCCN(CCC#N)c1ccc(/C=C(/NC(=O)c2cc([N+](=O)[O-])ccc2Cl)C(=O)NN)cc1,,> 100 µM
CC(C)(C)COC(=O)C(C)(C)NC(=O)C(CC(=O)OCc1ccccc1)NC(=O)OCc1ccccc1 (stereo unspecified),,> 100 µM
O=C(NC(=Nc1ccccc1)SCSC(=Nc1ccccc1)NC(=O)c1ccco1)c1ccco1,,> 100 µM
O=C(/C=C/C12c3ccccc3C(c3ccccc31)C1C(=O)N(c3ccc(Cl)cc3)C(=O)C12)c1ccccn1 (stereo unspecified),0.512 µM,> 35.8 µM
CCn1c2nc(=O)n(CCCCCCCCSC(c3ccccc3)(c3ccccc3)c3ccccc3)c(=O)c-2nc2ccccc21,,> 100 µM
COC(=O)C12CCC(C)(C)CC1C1=CCC3C4(C)CC(O)C(O)C(C)(C(=O)OC)C4CCC3(C)C1(CO)CC2 (stereo unspecified),,32.3 µM
N/C=N/S(=O)(=O)c1ccc(NC(=O)COC(=O)c2cccc3c(=O)c4ccccc4[nH]c23)cc1,,> 100 µM
CN(c1ccccc1)S(=O)(=O)c1ccc([N+](=O)[O-])cc1,,> 100 µM
Oc1cc(N2CC2)c(O)cc1N1CC1,1.7 µM,5.34 µM
COc1ccc(-c2oc3ccccc3c(=O)c2O)cc1OC,,> 100 µM
CC(=O)c1ccccc1NC(=O)C(=O)C(C(=O)c1ccc2ccccc2c1)C1OC(=O)c2ccccc21 (stereo unspecified),,67.9 µM
Cc1ccc([Se](=C(C(=O)c2ccccc2)C(=O)c2ccccc2)c2ccc(C)cc2)cc1,,75.1 µM
Nc1nc(N)c(CCCCc2ccccc2)c(C=O)n1,,32.9 µM
O=c1[nH]c(=O)c2ncn(-c3ccc([N+](=O)[O-])cn3)c2[nH]1,,> 100 µM
COc1cccc(C=O)c1C(=O)c1cc(O)ccc1O,,> 100 µM
COc1ccc2c(c1)[n+]([O-])c(-c1cccc(Cl)c1)c(N)[n+]2[O-],,> 100 µM

SMILES,GI50,TGI
NC1N=Nc2ccccc21 (stereo unspecified),,> 100 µM
O=C(C=Nc1ccccc1C(=O)[O-])c1cccs1.O=C(C=Nc1ccccc1C(=O)[O-])c1cccs1.[Ni+2],,> 100 µM
C[C@H](c1ccc(F)cc1CCCC(=O)O)N(c1cc(F)ccc1F)S(=O)(=O)c1ccc(Cl)cc1,37.8 µM,> 100 µM
COC(=O)C(Cc1ccccc1)NC(=O)C(CS)NC(=O)OC(C)(C)C (stereo not drawn) (Boc-Cys-Phe-OMe; configuration not given here),,> 100 µM
C[C@@]1(CCCCCCCCCCc2ccccc2)C[C@@]2(C)OC(=O)C[C@H]2OO1,,29.2 µM
CCn1c(-c2nonc2N)nc2c(C#CC(C)(C)O)ncc(OC3CCNCC3)c21,> 22.9 µM,> 25 µM
CNC(=O)c1nn(C)c2c1C(C)(C)Cc1cnc(Nc3cccc(N4CCN(C)CC4)c3)nc1-2,0.451 µM,30 µM
CCC(=O)Nc1cccc(N=Cc2ccc(OC(=O)/C=C\c3ccccc3)cc2)c1,,> 75 µM
CN(C)C(=O)Oc1c(Br)cc(Br)cc1C(=O)OCc1ccccc1,,> 100 µM
Cc1nn(C(=O)c2ccccc2O)c2c1C(c1ccc(O)cc1O)SC(N)=N2 (stereo unspecified),,> 10 µM
c1coc(-c2nccc3c2[nH]c2ccccc23)c1,,> 100 µM
CCc1cc(C)cc2[n+]1CC=C2,,> 100 µM
N#Cc1c(N)oc(-c2ccc([N+](=O)[O-])cc2)c1C#N,,80 µM
O=C(O)CCCCn1ccc(=O)[nH]c1=O,,> 100 µM
O=C(c1ccccc1)N1CCN(C(=S)NC2CCCCC2)C1=S,,51.9 µM
C=C(C)[C@@H](O)[C@H](O)C[C@H](C)C1CC[C@]2(C)C1=CC[C@@H]1[C@@]3(C)CC[C@@H](OC(C)=O)C(C)(C)[C@@H]3C[C@@H](OC3OC(COC(C)=O)C(O)C(O)C3O)[C@]12C (stereo partly specified),,5.22 µM
Cc1ncc([N+](=O)[O-])n1CC[N+](C)([O-])CCCCn1ccnc1[N+](=O)[O-] (stereo unspecified),,> 100 µM
CCOC(=O)/C=C(/C(=O)OCC)n1cc(C)c(=O)n(Cc2cnnn2COCCOC(C)=O)c1=O,,> 100 µM
CCC12CCCN(Cc3ccccc3)C1c1c(n(C)c3ccccc13)C(CO)C2 (stereo unspecified),,140 µM
Cc1ccc(S(=O)(=O)N2CCC[C@@H]2C(=O)O[C@@H]2CCC3CC=CC32)cc1 (stereo partly specified),,> 100 µM
CSc1ncc2c(n1)-c1ccccc1OC2N1CCOCC1 (stereo unspecified),,> 100 µM
C/C(=N\Nc1nc2cc(Cl)ccc2s1)c1ccccn1,,58.4 µM
Cc1ccc(-c2nc3nc(-c4ccc(F)cc4)nc(N4CCNCC4)c3o2)cc1,1.99 µM,4.6 µM
